Measured values taken from PubChem BioAssay AID504467 (National Center for Advancing Translational Sciences (NCATS), 2011).
In all, about 330,000 compounds went through this assay and about 7,700 (2.3%) were called active. Inconclusive results (about 26%) are left out. The call rests on the fitted dose curve; in most records, active means well fitted inhibition curve with a large enough effect; inconclusive means small, poorly fitted or top-dose-only effect, or effect the other way; inactive means flat fitted curve, though single readings scatter. Only a part is listed here, and it is no random draw.

experiment: qHTS screen for small molecules that inhibit ELG1-dependent DNA repair in human embryonic kidney (HEK293T) cells expressing luciferase-tagged ELG1; conditions: HEK293T ELG1-luciferase reporter, luminescence, 16 h, DNA damage induced by 5-fluorouridine; series mostly up to 46.1 µM; activity change, negative = inhibition: at the top concentration; further: nearly all actives have a fitted effect of over 55% in size
How it was run: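 Overnight (16 hr) co-exposure of 2,000 cells/well to 5-fluorouridine and compound at 37 °C preceded detection. Luciferase was quantified via ONE-Glo luminescence; loss of signal denotes inhibition.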
On the % scale 0 is the no-effect control and ±100 the full control effect; potency means the concentration at half of the fitted maximal effect.

| Structure (SMILES) | activity change, negative = inhibition | Potency |
| --- | --- | --- |
| COC1=CC2C3Cc4ccc(OC)c(O)c4C2(CCN3C)CC1=O (centres undefined) | inactive: 10.3% | – |
| C[C@]12CCC3C(CC[C@H]4C[C@H](O)CC[C@]34C)C1C[C@@H](O)[C@@H]2O (some centres undefined) | inactive: 0% | – |
| CCSc1nnc(C(N)Cc2ccccc2)o1 (centres undefined) | inactive: 0.167% | – |
| c1cc2c(cc1[C@H]1OC[C@H]3[C@@H]1CO[C@@H]3c1ccc3c(c1)OCO3)OCO2 | inactive: -9.44% | – |
| COc1ccc(CN2C(=O)NC(=O)/C(=C\c3ccc(OC)c(OC)c3OC)C2=O)cc1 | inactive: 15.8% | – |
| O=C(CCCCCCCCCCC(=O)NCc1cccnc1)NCc1cccnc1 | – | active: 3660 nM |
| COC(=O)c1nc(-c2ccc3c(n2)C(=O)C(N)=C(OC)C3=O)c(N)c(-c2ccc(OC)c(OC)c2O)c1C | – | active: 2060 nM |
| C[C@]12CCC3C(CC[C@H]4C[C@@H](O)CC[C@]34C)C1C[C@@H](Br)[C@H]2O (some centres undefined) | inactive: -3.08% | – |
| O=C1NCCOC(=O)[C@@H](Cc2ccc(F)cc2)CC/C=C/C[C@@H]1CC(=O)N(CCO)Cc1ccccc1 | inactive: -22.3% | – |
| C=CCN1C(=O)/C(=C/c2ccc(N3CCOCC3)o2)C(=O)NC1=S | inactive: 6.87% | – |
| C=CC[C@@H](CC(=O)N[C@@H](CO)Cc1ccccc1)C(=O)NCCOC(=O)[C@@H](CC=C)Cc1ccc(F)cc1 | inactive: -0.0548% | – |
| Cc1ccccc1-n1c(O)c(/C=N/c2nccs2)c(=O)[nH]c1=O | inactive: -12.5% | – |
| C[C@]12CCC3C(CC[C@H]4C[C@@H](O)CC[C@]34C)C1C[C@@H](Br)[C@@H]2O (some centres undefined) | inactive: 24.5% | – |
| CN(C)[C@@H]1C(=O)C(C(N)=O)=C(O)[C@@]2(O)C(=O)C3=C(O)c4c(O)cccc4[C@@](C)(O)[C@H]3[C@H](O)[C@@H]12 | – | inactive |
| COc1ccc2c(c1OC)C(=O)O[C@H]2[C@@H]1c2cc3c(cc2CCN1C)OCO3 | inactive: -6.06% | – |
| COC(=O)[C@H]1C[C@@H]1[C@H](NP(=O)(c1ccccc1)c1ccccc1)c1ccccc1 | inactive: 13.3% | – |
| COc1cc2c(cc1O)CC1c3c(cc(O)c(OC)c3-2)CCN1C (centres undefined) | inactive: -50.1% | – |
| CC(=O)OC1C2CCCC1C(N1CCCC1)CC2 (centres undefined) | inactive: 9.49% | – |
| COC(=O)C1C(OC(=O)c2ccccc2)CC2CCC1N2C (centres undefined) | inactive: -12.5% | – |
| COc1ccc2c(c1OC)C(=O)O[C@@H]2[C@H]1c2cc3c(cc2CCN1C)OCO3 | inactive: 8.48% | – |
| Cc1ccc(/C=C2/C(=O)NC(=O)N(CCc3ccc(F)cc3)C2=O)o1 | inactive: -1.54% | – |
| C[C@]12CCC3C(CC[C@H]4C[C@H](O)CC[C@]34C)C1C[C@H](O)[C@@H]2O (some centres undefined) | inactive: -22.5% | – |
| ClC1C(Cl)C(Cl)C(Cl)C(Cl)C1Cl (centres undefined) | inactive: 5.52% | – |
| COc1ccc(CN2C(=O)NC(=O)/C(=C/c3cc(OC)c(OC)c(OC)c3)C2=O)cc1 | inactive: 16.4% | – |
